In ChEMBL document CHEMBL4888484, “Replenishing the malaria drug discovery pipeline: Screening and hit evaluation of the MMV Hit Generation Library 1 (HGL1) against asexual blood stage Plasmodium falciparum ,using a nano luciferase reporter read-out” (2022):
Among all 150,000 compounds or so, about 540 (0.36%) showed an effect of 50% or more. This is one part of the list.

Test system: Plasmodium falciparum
Test: Primary screen in NF54 nanoGlo assay, in single point, at 2uM, 72h; a lower Z score goes with more inhibition
Type: functional, Erythrocyte
Settings: timepoint 72 hour

| SMILES | % Inhibition [%] | Z score |
| --- | --- | --- |
| O=C(CN[C@@H](C1CCOCC1)C(F)(F)F)N1CCOCC1 | -6 | 0.54 |
| COC(=O)CCc1nnc(NCc2ccc3c(c2)OCCO3)s1 | -7 | 0.84 |
| Cc1n[nH]c2nc3c(c(-c4ccc(Cl)cc4)c12)c(=O)n(C)c(=O)n3C | 4 | -0.57 |
| Cc1nn(-c2nc(CC(=O)Nc3ccccc3)cs2)c(C)c1Cl | -9 | 1.71 |
| O=C(CNc1cccnc1-c1ccco1)Nc1ccc(F)cc1 | -35 | 4.95 |
| Cc1[nH]c2c(-c3nc(-c4ncccn4)no3)cccc2c1C | -3 | 0.58 |
| CC(C)CN(CC(N)=O)Cc1nccn1C | -1 | 0.23 |
| O=C1N[C@@H](c2csc(COc3ccccc3)n2)Nc2ccccc21 | -4 | 0.64 |
| CCCc1ccc(OCCNC(=O)c2nn(C)cc2Cl)cc1 | -18 | 2.3 |
| CC1CN(CC(CNC(=O)OC(C)(C)C)Cc2ccncc2)CCO1 (stereo not drawn) | 16 | -2.12 |
| Clc1ccc2c(c1)sc[n+]2Cc1ccccc1 | -10 | 1.97 |
| C=CCOc1ccc(-c2nc(=O)c(CCC(=O)N3CCCC3)n[nH]2)cc1OC | 20 | -2.45 |
| NC(=O)CS(=O)(=O)c1cc(F)ccc1F | 4 | -0.65 |
| CCOc1ccc(S(=O)(=O)N2CCC[C@@H]2CS(=O)(=O)c2ccccc2)cc1F | -1 | 0.14 |
| OCc1ccc(-c2cnn([C@@H]3CCCCO3)c2)cc1 | -12 | 1.08 |
| CC(C)(C)c1cc(NC(=O)COc2nnc(-c3ccccc3)o2)on1 | -9 | 1.04 |
| Cc1cccc(-n2cc(-c3ccccc3)nc2NC(=O)CN(C(=O)CC(C)C)C2CC2)c1 | 7 | -0.92 |
| O=C1[C@@H]2C(c3cccnc3)=NO[C@@H]2C(=O)N1c1cc(Cl)cc(Cl)c1 | -1 | 0.12 |
| Cc1c(C(c2c(C)n(C)n(-c3ccccc3)c2=O)c2c[nH]c3ccccc23)c(=O)n(-c2ccccc2)n1C | -6 | 0.93 |
| C[C@@H](c1ccc2c(c1)OCCO2)N(C)C(=O)CN1C(=O)OC(C)(C)C1=O | -9 | 1.8 |
| Cc1nc(CC[C@H]2CCN(C(=O)c3cccnc3)C2)no1 | -3 | 0.45 |
| COc1ccccc1NC(=O)[C@@H]1CCN(S(C)(=O)=O)c2ccccc2O1 | -7 | 1.08 |
| C[C@H](NC(=O)Nc1ccncc1F)c1ccc(OC(F)F)cc1 | -1 | 0.09 |
| CCOCCCNC/C=C/c1ccccc1 | 36 | -4.62 |
| COC(=O)c1cc(S(=O)(=O)Nc2ncncc2C(C)C)ccc1C | -8 | 0.91 |
| CCc1ccc(CNC(=O)C2CCN(c3cc(=O)n(C)c(=O)n3C)CC2)cc1 | -4 | 0.65 |
| Cc1nc([C@@H]2CCCCCN2S(=O)(=O)c2cnn(C)c2)no1 | -5 | 0.66 |

| SMILES | % Inhibition [%] | Z score |
| --- | --- | --- |
| CC(C)CN1CCN([C@H]2CCOC3(CCN(C(=O)c4cccc5[nH]ccc45)CC3)C2)CC1 | -22 | 2.4 |
| Cc1noc(C)c1S(=O)(=O)N1C[C@H](C)OCC1(C)C | -2 | 0.22 |
| CN(C)CCCn1ccnc1C1CCN(c2ccc3c(n2)CCCC3)CC1 | 12 | -2.29 |
| O=C(CCc1nc(N2CCCCC2)c2c(-c3ccc(F)cc3)noc2n1)N[C@H]1CCS(=O)(=O)C1 | -1 | 0.21 |
| CCNC(=O)[C@H]1CCN(C(=O)c2ccc3nc(-c4ccccc4)cn3c2)C1 | -18 | 1.93 |
| COc1ccc(CNCCc2nnc3ccccn23)cc1 | 9 | -1.39 |
| COc1ccc(S(=O)(=O)N2CCOCC2)cc1NC(=O)c1cc(-c2ccc(C)o2)nc2ccccc12 | -16 | 2.59 |
| CNC(=O)COc1cccc2c1CCC2=O | 24 | -3.31 |
| CN(C)C(=O)N1CCN(CCOCc2ccccc2)C[C@H](O)C1 | -13 | 1.27 |
| C[C@H](NC(=O)N1CC2(CCCO2)C1)c1nccn1C | 3 | -0.28 |
| COc1ccccc1-c1ccnc(-n2ncc(C(=O)NCCN(C)C)c2-c2ccco2)n1 | -3 | 0.59 |
| CC(=O)NCCNC(=O)c1cc(NCc2cccc3c2OCO3)cc(S(=O)(=O)N(C)C)c1 | -13 | 1.53 |
| CCCn1ccnc1CN(C)Cc1cccc(-c2nnn[nH]2)c1 | -22 | 2.32 |
| CO[C@@H](CNS(=O)(=O)c1cccnc1)C(C)(C)C | -8 | 0.83 |
| COc1cccnc1NC(=O)Cc1csc(-c2ccc(C)o2)n1 | 9 | -1.11 |
| O=C1CN(C(=O)CCC(=O)Nc2ccc3c(c2)CCC3)CCN1 | -4 | 0.79 |
| Cc1nc(CNC(=O)Nc2cccc(F)c2)n[nH]1 | -5 | 0.76 |
| CS(=O)(=O)N1CCN(CCC(=O)NC2CCCCC2)CC1 | -4 | 0.47 |
| CC(C)c1nc([C@H]2CCCN(S(=O)(=O)c3cnc4n3CCC4)C2)no1 | 11 | -1.27 |
| COc1cccc(C2=NN(C(=O)CN(C)C(=O)C3CCCC3)[C@H](c3ccccc3)C2)c1 | -9 | 1.41 |
| Cc1cnc(CN2CCC(Oc3ncc(C)cn3)CC2)nc1 | -16 | 2.23 |
| O=C(c1ccc2c(c1)C(=O)N(Cc1ccccc1)C2=O)N1CCCCC1 | -7 | 0.71 |
| CN(C)C(=O)Cc1ccc(NS(=O)(=O)C2CC2)cc1 | -6 | 0.94 |
| CN(C)c1cccc(C(=O)N2CCC(c3nc4ccccc4o3)CC2)c1 | -1 | 0.18 |
| Cn1cc(S(=O)(=O)N(Cc2ccccn2)C2CC2)cn1 | -3 | 0.53 |
| CC(O)(CNS(=O)(=O)CC1CCCC(F)(F)C1)c1ccccc1 (stereo not drawn) | -7 | 0.96 |
| O=C1CC2(CCOCC2)N(Cc2cnc(-c3ccccc3)o2)CCN1 | -6 | 0.8 |
